Data as given in US9970935B2, “Uses of GLI1 in detecting tissue fibrosis” (THE BRIGHAM AND WOMEN'S HOSPITAL, INC., priority 2014, dated 2018).

What was measured:
UUO kidneys = test: Unilateral ureteral obstruction (UUO) kidney fibrosis model; conditions: mouse, in vivo
[1] = test system: interstitial myofibroblasts and tubular epithelial cells; conditions: mouse, in vivo

Which “endogenous Gli1 protein level in UUO kidneys” value (UUO kidneys) does the source give for `C[As](C)SC[C@H](NC(=O)CC[C@H](N)C(=O)O)C(=O)NCC(=O)O` [darinaparsin, S-dimethylarsino-glutathione] here?
The value was “significant reduction”.

What about the “endogenous Gli2 protein level in UUO kidneys” value (UUO kidneys) of the same compound?
Its value is “significant reduction”.

And the “number of Gli expressing interstitial cells after UUO” value (UUO kidneys)?
Its value is “reduces”.

What about the “phosphorylated retinoblastoma protein (p-Rb, Ser780)” value (UUO kidneys) of the same compound?
The value was “reduced”.

What about the severity of fibrosis (UUO kidneys) of the same compound?
Its severity of fibrosis is “significantly reduced”.

And the “cell-cycle distribution of tubular-epithelial cells” value [1]?
The value was “without altering”.
